Assay results from paper PMC4336329 (PLoS ONE, 2015).
The whole screen tested about 310,000 compounds, of which about 2,200 (0.71%) showed an effect of 50% or more. Effects have a minus sign here. The list shows a part of the results.

The compounds below were run against human ether-à-go-go-related gene (hERG) potassium channel (human, UniProt Q12809) (assay: primary screen, population patch clamp on CHO cells stably expressing hERG).
human ether-à-go-go-related gene (hERG) potassium channel, sequence (Q12809 whole entry, looked up): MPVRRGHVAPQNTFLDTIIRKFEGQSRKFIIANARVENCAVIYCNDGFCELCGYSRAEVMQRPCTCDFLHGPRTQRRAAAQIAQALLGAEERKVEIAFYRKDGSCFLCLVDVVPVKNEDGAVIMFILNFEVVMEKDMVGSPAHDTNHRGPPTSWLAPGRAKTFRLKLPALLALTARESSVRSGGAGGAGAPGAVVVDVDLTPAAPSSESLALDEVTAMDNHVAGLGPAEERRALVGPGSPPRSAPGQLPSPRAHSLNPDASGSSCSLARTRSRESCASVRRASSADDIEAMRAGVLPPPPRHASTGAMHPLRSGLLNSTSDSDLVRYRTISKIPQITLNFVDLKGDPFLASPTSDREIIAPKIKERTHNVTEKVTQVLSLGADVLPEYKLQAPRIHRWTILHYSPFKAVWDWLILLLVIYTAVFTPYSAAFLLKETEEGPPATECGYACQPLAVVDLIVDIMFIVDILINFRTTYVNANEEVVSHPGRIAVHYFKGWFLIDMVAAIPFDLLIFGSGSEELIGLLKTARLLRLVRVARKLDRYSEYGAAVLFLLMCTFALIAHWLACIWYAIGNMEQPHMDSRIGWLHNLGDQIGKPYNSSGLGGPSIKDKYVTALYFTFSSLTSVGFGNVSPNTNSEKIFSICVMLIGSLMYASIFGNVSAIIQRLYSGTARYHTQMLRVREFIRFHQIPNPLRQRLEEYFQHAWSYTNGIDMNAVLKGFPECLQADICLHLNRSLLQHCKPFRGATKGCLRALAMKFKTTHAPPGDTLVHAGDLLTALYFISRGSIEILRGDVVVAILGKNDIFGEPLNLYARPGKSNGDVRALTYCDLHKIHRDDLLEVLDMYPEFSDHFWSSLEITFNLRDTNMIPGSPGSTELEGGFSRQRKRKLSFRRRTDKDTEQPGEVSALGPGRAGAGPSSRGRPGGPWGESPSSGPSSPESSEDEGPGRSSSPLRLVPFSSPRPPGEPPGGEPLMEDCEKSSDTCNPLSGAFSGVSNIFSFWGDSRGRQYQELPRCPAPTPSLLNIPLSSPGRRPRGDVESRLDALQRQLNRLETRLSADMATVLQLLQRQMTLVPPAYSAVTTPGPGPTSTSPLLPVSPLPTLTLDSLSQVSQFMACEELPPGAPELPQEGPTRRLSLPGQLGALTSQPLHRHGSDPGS

SMILES	hERG current change (%, negative = inhibition) at 1uM
Cn1cccc1/C=C1\SC(=O)N(c2ccccc2)C1=O	8.82%
Cc1ccc(-c2cc(C(F)(F)F)n3nc(C(=O)NCCCn4ccnc4)cc3n2)cc1C	-4.52%
NC(=O)c1nsc(C(=O)N(c2ccccc2)C(C(=O)NCC2CCCO2)c2ccc3ncccc3c2)c1N (stereo not drawn)	2.27%
CCN(CC)C(=O)C(=O)N/N=C/c1ccc(C(=O)OC)cc1	9.14%
Fc1ccccc1/C=N/Nc1ncnc2ccccc12	10.9%
Cc1cc(C)nc(SC2=CS(=O)(=O)c3ccccc32)n1	8.75%
O=C(COC(=O)c1nc(Cl)ccc1Cl)NNC(=O)c1ccccc1	15.9%
COC(=O)CSc1ncnc2c1sc1nc3c(cc12)COC(C)(C)C3	18.3%
CCc1cc(-c2n[nH]c(CCC(=O)O)c2-c2nc3ccccc3n2C)c(O)cc1O	7.37%
O=C(O)c1ccc(CSc2nnc(-c3ccc(Cl)cc3)o2)cc1	19.6%
COc1cccc(COC(=O)c2ccc3c(=O)n4c(nc3c2)CCC4)c1OC	18.1%
O=[N+]([O-])c1ccc2nc(CCCO)[nH]c2c1	14.9%
COCCn1nnnc1CN1CCN(C(=O)c2ccco2)CC1	11.3%
O=C(NCCc1ccccc1)c1noc2c1CCc1ccccc1-2	7.76%
N/C(=N\OC(=O)c1ccc2c(c1)OCO2)c1ccc(Cl)cc1	-3.53%
COc1ccc(CCN=C(N)NS(=O)(=O)c2ccc(OC)cc2)cc1	16.3%
CCOC(Cn1cc(C)c(=O)[nH]c1=O)OCC	2.6%
COC(=O)C1=C(c2ccc(OCc3ccccc3)cc2)C[C@@H]2CC[C@H]1N2C(=O)NCCCc1ccccc1	12.2%
Cc1ccc2[nH]c3c(=O)n(CCN4CCNCC4)cnc3c2c1	18.5%

SMILES	hERG current change (%, negative = inhibition) at 1uM
Cn1c(=O)c2c(nc(N3CCc4ccccc4C3)n2Cc2ccc(Br)cc2)n(C)c1=O	8.46%
OC(CN1CCN(c2ccc(C(F)(F)F)cn2)CC1)c1ccccc1 (stereo not drawn)	-19.6%
COn1c(SCC(N)=O)nc2ccccc2c1=O	6.41%
O=S(=O)(Nc1ccc(-n2cccc2)cc1)c1ccc(Cl)c(Cl)c1	12.3%
COc1cc(CN2CC=C(c3ccc(F)cc3)CC2)cc(OC)c1	12.3%
COc1ccccc1NC(=O)c1ccc2nc(C)c(C)nc2c1	2.94%
CCC1Oc2ccc(C)cc2N(CC(=O)NCCCN2CCCCC2C)C1=O (stereo not drawn)	9.82%
COCCN1Cc2cccc(C(=O)NC(C)c3cccs3)c2C1=O (stereo not drawn)	16.7%
CCN1CCN(c2c(Cl)cccc2NC(=O)c2ccc3c(c2)OCCO3)CC1	-4.39%
CCN(CC)S(=O)(=O)c1ccc(Cl)c(C(=O)NCCN2CCOCC2)c1.Cl	9.01%
CCOc1ccc(CNS(=O)(=O)c2cccs2)cc1OCC	12.7%
CCOC(=O)C(C)/C(C)=N\Nc1ccc([N+](=O)[O-])cc1[N+](=O)[O-] (stereo not drawn)	-6.1%
CCOC(=O)C1CCN(S(=O)(=O)c2ccc(OC)c(Cl)c2)CC1	13%
O=C1CSC(c2ccccn2)N1c1ccc(Br)cc1 (stereo not drawn)	8.41%
CC(C)(C)n1nnnc1C(c1ccc2ncccc2c1)N1CCSCC1 (stereo not drawn)	-2.81%
O=C(N/C(=C/c1cccs1)C(=O)N1CCCCCC1)c1ccccc1	-1.95%
CCOC(=O)c1ccc(N/C=C2\CCCCC2=O)cc1	13.9%
COc1ccc2[nH]cc(/C=N/NS(=O)(=O)c3ccc(C)cc3)c2c1	-1.82%
CC(C)CCC(C)NC(=O)CN1C(=O)NC(C)(c2ccc3ccccc3c2)C1=O (stereo not drawn)	14.5%

SMILES	hERG current change (%, negative = inhibition) at 1uM
O=C(NCc1ccccn1)c1nn(-c2ccccc2)c(=O)c2ccccc12	4.59%
CCN(CC(=O)Nc1c(F)cccc1F)C(=O)CSc1ccccc1	15.9%
CN1C(=O)C(Cc2cccs2)C(=O)N(C)C1=O	15.2%
O=C(CN1CCN(c2ccccc2)CC1)Nc1cccc([N+](=O)[O-])c1	11%
CC(=O)C1=C(O)C(=O)N(c2ccc(O)cc2)C1c1cccc([N+](=O)[O-])c1 (stereo not drawn)	18.2%
CCN(CC)C1CCN(C(=O)c2cc(COc3ccc(F)cc3Cl)on2)C1 (stereo not drawn)	-21.2%
CCOc1ccccc1OCC(=O)N/N=C(\C)Cc1ccc(OC)cc1	6.38%
CC(=O)N/C(=C/c1ccc([N+](=O)[O-])cc1)C(=O)O	13.2%
C=CCN(C(=O)CSc1nc2c(sc3ccccc32)c(=O)n1CCN(CC)CC)c1ccccc1	8.17%
CCCOc1ccc(/C=C2/C(=O)ON=C2C)cc1OCC	13.9%
COc1cc(C(=O)/C=C/c2cccnc2)ccc1O	12.1%
Cc1cc(C)c(OCC(=O)NCC2CCCO2)c(C)c1 (stereo not drawn)	8.98%
CC(C)(C)NC(=O)NC(=O)CN1CCN(c2cccc(Cl)c2)CC1	7.96%
COc1ccc(S(=O)(=O)Nc2ccc(NC(C)=O)cc2)cc1[N+](=O)[O-]	13.5%
Nc1ccc(C(=O)NC23CC4CC(CC(C4)C2)C3)cc1	17.1%
COc1ccccc1N1CCN(C(=O)c2coc(=O)c(Br)c2)CC1	23.1%
CC(C)(C)OC(=O)N1CCN(CCNC(=O)c2ccccc2)CC1	17.2%
Cc1ccc(-c2nc3cccnc3s2)cc1NS(=O)(=O)c1cccs1	4.29%
N=c1c2c(-c3ccccc3)c(-c3ccccc3)n(Cc3ccco3)c2ncn1CCCO	-34.5%
